Results reported in the supplement of paper PMC11417369.
± gives the standard deviation of the averaged measurements. The list shows a part of the results.

What follows are sequences tested on PfAP2-G AP2 domain (GST-tagged) (assay: gcPBM binding intensity (ln(normalized median fluorescence intensity)); higher = stronger DNA binding).
In short: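 Using an Agilent 4 × 180k array, primer-extended double-stranded 36-bp intergenic genomic probes and negative controls were exposed for 1 h to GST-fused P. falciparum DNA-binding domains expressed in E. coli. Binding was carried out in 1× PBS with 1% milk, 0.2 mg/ml BSA, 0.5% salmon testes DNA and 0.03% Triton X-100, and protein was detected with Alexa488 anti-GST antibody and a 488 nm scan. Binding intensity is the highest Masliner-normalised natural-log median intensity across replicate spots of either probe orientation.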

Sequence	gcPBM binding intensity (ln)
AATATTTATATAAATGCATGCTGATACAACAGTCTT [TGCATGCA_site21]	10.1
ATATATATGAAACACACACACAAAAAAAAAAAAAAA [CACACA_site3647]	9.8 ± 0.47
ATAACACAAAATTGTTGTACACGTGTTAATAAGTGA [XGTACX_site4452]	11.6 ± 0.73
AAATTTGGCAGACACACACACACACGCACACGCACA [CACACA_site6423]	10.5 ± 0.27
TGAATAAATATATATACACACATATCTGTATTTATT [CACACA_site4991]	9.59 ± 0.21
TATATATATACCAACACACATACATATATATATATA [CACACA_site1795]	10 ± 0.33
CCCTCCCCATGTTTAGTGCAAAAATATTTGAAATTG [GTGCAC_site9873]	11.2 ± 0.58
TATGAAATTAGAATTACACACAGGAAAATAAAATGC [CACACA_site6822]	10.15 ± 0.035
TGAACTCATAGGAAAACACACATATGGGTAATATAT [CACACA_site187]	10.1 ± 0.014
ATTTTCCTTTTACCACGTACACATAAAAACGTTATA [XGTACX_site3595]	11.5 ± 0.9
TTTGCGTAGAAATGTGTGCACTGATATTTATAATAA [GTGCAC_site9526]	10.4 ± 0.36
AAAAAAAATCAAATGGGTACTTATTCTTAATAATAT [XGTACX_site3792]	11.1 ± 0.67
GGAACTTATTTTTATACACACATATGTGCATATTAT [CACACA_site629]	10.14 ± 0.035
GTAAAAAAATTAAAAATTAACAAGGAATTAAGTATA [CACACA_negctrl_site1688]	9.9 ± 0.071
TATACATATATATACACACACACATATATATATATA [CACACA_site1299]	10.1 ± 0.19
TATATATATTTAAAGGTGCAGATGCCAGTGTATATT	10.2 ± 0.2
AATGAACTCACGAGCACACACACACCGATATATATA [CACACA_site4710]	10.4 ± 0.2
ATAAATATATTTAAATGTACATAATATATATATATA [XGTACX_site5137]	11.1 ± 0.62
ACATATTCATATGGAAGTACGATAATGTAGTCATAT [XGTACX_site7080]	10.9 ± 0.52

Sequence	gcPBM binding intensity (ln)
ATATATACATACAAATTAATTACGAGGAATATATTA [XGTACX_negctrl_site417]	9.86 ± 0.014
TTAAAAAAATAATTAACACACACATGTATATCTATA [CACACA_site9026]	9.89 ± 0.099
TTGTAATAAATAAAAGTGCAGATATGGTTCCACTAA [GTGCAC_site9942]	10.4 ± 0.34
ATCATAAATATAGCAACACACGGATTACATAAAATA [CACACA_site2796]	10.1 ± 0.22
TAAAAAAAAATAAATGGTACACAATTAAATGTTTAT [XGTACX_site5255]	11.2 ± 0.58
AGTGACACCAAAGGGGTGCAATGAAATTAAAAATAT	10.2 ± 0.21
TTTATTCATTTCTAAAAATATTAAAATAGAATGAAT [CACACA_negctrl_site325]	9.59 ± 0.11
AAACAAAAAATATATACACACTAAACATAAAAAAAA [CACACA_site4185]	9.96 ± 0.16
TAGTTTTTTATATATTGTACAAATAATATATTATAT [XGTACX_site2564]	10.9 ± 0.57
ATTTTATGATATATTTGTACTTAACATTTGGATATA [XGTACX_site5888]	11 ± 0.63
ATAAGAAAATCAAAAAGTACTTTTTACAAAGATAAA [XGTACX_site824]	11.1 ± 0.64
ATATACTATATATAATGTACATATATATTATTATGC [XGTACX_site2957]	10.9 ± 0.47
TCTTTTTTTAATAAAACATGCAATATTATATATGTA [TGCATGCA_site236]	9.745 ± 0.049
GTAATTATTAATAAAACATGCGTATAAAATTTTCTC [TGCATGCA_site50]	9.99 ± 0.014
TAAATTCTTTAAAACTTTAAAACAAAAAAAAAAAAA [CACACA_negctrl_site1078]	9.51 ± 0.45
AAAAAAATATATATATATATATATATATATTTATAT [XGTACX_negctrl_site86]	9.255 ± 0.035
TGCAAAGGTGAAAGAACACACAAAAAAAAAAAAAAA [CACACA_site4024]	9.81 ± 0.54
TTCAATGCTAATTTATGTACATATGTATATAAAATA [XGTACX_site8335]	11.1 ± 0.76
CCCAAAAAAAATTTATGTACTTATTAAATATATATA [XGTACX_site6455]	11.3 ± 0.86

Sequence	gcPBM binding intensity (ln)
TTTATATAAATTTAAGTGCAAAATGAACAAGTGAAA	10.3 ± 0.3
AAAATATATATTTGTTGTACAATATTAATTATTAAA [XGTACX_site1612]	11.5 ± 0.81
TTTTTAATCTCATATGTATAATATATTTTTATTAAA [XGTACX_negctrl_site236]	9.93 ± 0.23
AATTTTAGATTTAGCACACATTTTTTTTTTTTTTTT [CACACA_site6105]	10.4 ± 0.25
TTCAAAGGGAAATTAACACACACATATATATATATA [CACACA_site8777]	10.2 ± 0.67
TATGAAAATAAAATATGTACATATTTTAAATGTTAT [XGTACX_site7352]	11.4 ± 0.81
CAAATGTGTTCTTCAGGTACAGATACACATTTATGA [XGTACX_site2664]	11 ± 0.5
TAAAAAATTATATATTGTACGAATGCATAAAAAAAA [XGTACX_site4606]	10.8 ± 0.41
AAAAAAAAAAAAAGAACATGCGACTTTAAGAACTGG [TGCATGCA_site792]	9.91 ± 0.099
CACCATGTTAACAAAGCATGCATCTCTATAGTTTTA [TGCATGCA_site97]	9.995 ± 0.049
AATATAAATAATTATACACACTTAATATATATATAC [CACACA_site5533]	10.01 ± 0.035
ATAACAAAAAAAAAGGTGCTACAAAATGAATAAAAA [GTGCAC_site9659]	9.975 ± 0.035
ATATTTTATTTTAATACACACAAGTTATATAACCAC [CACACA_site6508]	10.3 ± 0.35
TACATATATATATATGTACACACATTAATAAAAAAA [CACACA_site9058]	11.4 ± 0.87
AAATATATATATATATATATAAATATATACATATAT [TGCATGCA_negctrl_site517]	9.35 ± 0.23
CTTTAAATTAATAAAAGTACATTATTTATATATTTT [XGTACX_site4808]	11.1 ± 0.73
ATATTTAGGAAAAATAGTACACATTTAAATAATAAT [XGTACX_site7989]	11.5 ± 1.1
TAGGTGCCTTTTTTCACACACATGTCAACTAAATAT [CACACA_site2656]	10.2 ± 0.2
TATTAATTTAAATGGGTGCAAAACCTATATAAATAT	10.2 ± 0.26
